Data from PubChem BioAssay AID1745853 (National Center for Advancing Translational Sciences (NCATS), 2022).
“And” between values parts separate entries of the source, which are not always exact repeats. Identical values can stand only once. The list shows a part of the results. These are further read-outs of the screen, such as a control signal, another cell line or another target. No call is given for them.

How the values were obtained:
Test in all cases: Primary Screen for Target Class Profiling of Small Molecule Inhibitors of Methyltransferases
[1] = biological target: Glycine N-methyltransferase (Homo sapiens) (UniProt Q14749); conditions: purified enzyme, MTase-Glo SAH luminescence; measured here: GNMT inhibition; at 40 µM; stronger effect = lower value
Summary of the method: (§1)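 Each enzyme was assayed with SAM and its substrate. SAH formation detected by MTase-Glo luminescence; single-point 40 uM screen[…].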

[2] = biological target: Guanidinoacetate N-methyltransferase (Homo sapiens) (UniProt Q14353); conditions: purified enzyme, MTase-Glo SAH luminescence; measured here: GAMT inhibition; at 40 µM; stronger effect = lower value
Summary of the method: as §1

[3] = biological target: Histamine N-methyltransferase (Homo sapiens) (UniProt P50135); conditions: purified enzyme, MTase-Glo SAH luminescence; measured here: HNMT inhibition; at 40 µM; stronger effect = lower value
Summary of the method: as §1

[4] = biological target: Nicotinamide N-methyltransferase (Homo sapiens) (UniProt P40261); conditions: purified enzyme, MTase-Glo SAH luminescence; measured here: NNMT inhibition; at 40 µM; stronger effect = lower value
Summary of the method: as §1

[5] = biological target: Phenylethanolamine N-methyltransferase (Homo sapiens) (UniProt P11086); conditions: purified enzyme, MTase-Glo SAH luminescence; measured here: PNMT inhibition; at 40 µM; stronger effect = lower value
Summary of the method: as §1
% is scaled to controls: 0 for no effect and ±100 for the full control effect.

Structure (SMILES) | activity change, negative = inhibition [1] | activity change, negative = inhibition [2] | activity change, negative = inhibition [3] | activity change, negative = inhibition [4] | activity change, negative = inhibition [5]
CCCC(CCC)C(=O)NCc1ccc2c(cnn2-c2ccccc2OC)c1 | -0.006% | 4.83% | 8.71% | -18.3% | -3.81%
CCOC(=O)c1cc2n(n1)CC(C)(C(=O)NCc1ccccc1OC)N(c1ccc(OC)cc1)C2=O (stereo not given) | 1.13% | 6.13% | 6.96% | -1.07% | 0.858%
NS(=O)(=O)OC[C@@H]1C[C@@H](n2ccc3c(N[C@H]4CCc5ccccc54)ncnc32)C[C@@H]1O | -5.31% and -14.1% | 3.34% and -5.96% | -4.98% and -5.1% | -20.6% and -25.2% | -78.5% and -74.3%
COc1ccc2c(c1)c(NC(C)=O)c1n2CC(C)(C(=O)NC2CCCC2)N(Cc2cccnc2)C1=O (stereo not given) | 3.03% | 3.45% | 10% | 8.27% | 2.66%
Cc1ccc(Cl)cc1N1C(=O)c2cc(C(C)C)nn2CC1(C)C(=O)NC1CCCCC1 (stereo not given) | -4.64% | 1.5% | -1.51% | -4.32% | -0.816%
CCn1c(=O)c2ccnn2c2ccc(C(=O)O)cc21 | 0.08% | 2.69% | 3.46% | -4.92% | 16%
FC(F)(F)c1ccc(-c2noc([C@@H]3Cc4nc[nH]c4CN3Cc3cc4ccccc4o3)n2)cc1 | -8.95% | -8.32% | -8.28% | -11.3% | -9.16%
Cc1ccccc1Cn1nc2n(CC(C)C)c(=O)c3ccc(C(=O)NCC(C)C)cc3n2c1=O | 8.41% | 3.42% | 9.19% | 4.14% | 7.76%
COc1ccc(CNC(=O)c2ccc3c(=O)nc4c(-c5ccc(Cl)cc5)n[nH]n4c3c2)cc1 | -2.35% | -0.182% | 2.36% | 0.702% | 1.01%
Cc1ccc(N2C(=O)c3ccccc3CC2(C)C(=O)NCc2ccccc2)cc1 (stereo not given) | 0.7% | 5.13% | -1.13% | -7.04% | -3.3%
Cc1onc(-c2c(F)cccc2Cl)c1C(=O)N[C@@H]1C(=O)N2[C@@H]1SC(C)(C)[C@@H]2C(=O)O | -1.39% | 3.96% | 3.3% | -12.8% | -0.833%
CC(C)CCNc1nc2c(-c3cccc(Br)c3)nnn2c2ccccc12 | 0.578% | 4.21% | 6.59% | 0.971% | -0.91%
COc1ccc(-c2n[nH]n3c2nc(=O)c2ccc(C(=O)NCc4ccccn4)cc23)cc1 | -4.9% | 0% | 8.56% | 9.11% | 4.56%
CC(C)(Oc1ccc(-c2nc3cc(Cl)ccc3s2)cc1)C(=O)O | -13.7% | -24.8% | 0.055% | -44.3% | -11%
CN1C(=O)c2cc(C(=O)NCc3cccc(F)c3)nn2CC1(C)C(=O)NCc1ccc(F)cc1 (stereo not given) | -4.51% | -4.31% | -10.8% | -1.47% | -5.06%
Cc1ccc(NC(=O)CSc2nnc3n(CC(C)C)c(=O)c4cc(F)ccc4n23)c(C)c1 | -6.93% | 2.71% | -1.78% | -12.9% | -4.68%
